Data on 172 sequences can be found in paper PMC10668032.

The other results are listed elsewhere or left out. At the low end of the ranking the order means little.

The test concerns the target SIX1 homeodomain (reference allele) (UniProt Q15475). The test is described as follows: universal protein binding microarray. The following applies: Universal all-10-mer PBM (8x60K, AMADID 030236), 300 nM GST-tagged protein, Alexa Fluor 488 anti-GST; buffer, salt, pH and temperature not stated; high values mean tight binding; most listed sequences are background and not binding sites; double strand, one strand shown.
On to CGTTGCTC, for which the binding signal was -0.101 E-score.
The value for GACACGTA was 0.211 E-score.
The value for CGTAAAGC was -0.198 E-score.
Then ATAGGAGG, with 0.115 E-score; and CTTGTTCC, with -0.0131 E-score.
As for AAGGAAGA, the binding signal is -0.114 E-score.
The value for ATCGATTC was 0.2 E-score; that for CTAGATCC was 0.191 E-score.
Then ATTGGAAA, with -0.194 E-score; and CCAACACA, with 0.033 E-score.
Then GGGATTCA, with 0.098 E-score; and GTGGATGA, with 0.128 E-score.
Turning to AGTGTGAC, the binding signal came out at 0.0378 E-score.
The value for CCGTGGCA was -0.0688 E-score.
Then AGTGTGAA, with -0.0571 E-score; and GCTGTAAC, with -0.18 E-score; and ACTAGCAG, with -0.196 E-score.
The value for AGAAGAAT was -0.077 E-score; that for ATGTTGAA was -0.0507 E-score; that for TGCATCCA was 0.00122 E-score.
Consider AATCGCTG, for which the binding signal was -0.333 E-score.
The value for GGGTTGCA was -0.0442 E-score.
The value for CTTATGTA was -0.115 E-score; that for AGTGACCC was -0.0107 E-score; that for CAGTGAAC was 0.0285 E-score.
Then CTTTCAGC, with -0.129 E-score.
Turning to GCTCGCGA, the binding signal is -0.000445 E-score.
The value for AAATTTAA was -0.285 E-score; that for AAGGGTTA was 0.0139 E-score; that for TAAGGATA was 0.276 E-score.
The value for AGCGTGTA was 0.14 E-score; that for AGCGGCTG was -0.126 E-score; that for CCTCTGCC was -0.113 E-score.
Then GATTCAAA, with -0.169 E-score; and AGCACGGC, with -0.127 E-score; and GTTTTGTA, with -0.0274 E-score.
Regarding CTGCACGA, the binding signal was -0.022 E-score.
Then TACTTTCA, with -0.00346 E-score; and AGGTTGAG, with -0.121 E-score; and AGCGGGAT, with 0.289 E-score.
The value for ATACCGAT was 0.353 E-score; that for GCGAGCGC was -0.157 E-score; that for GCTTAGCC was -0.0974 E-score.
The value for AAATGAGC was -0.018 E-score; that for GGCCTGGA was -0.197 E-score; that for GGCCGCCA was -0.317 E-score.
For the sequence AGTCTATG, the binding signal was -0.107 E-score.
The value for AACTAGCA was -0.0897 E-score; that for TATAAAAA was -0.104 E-score.
Then GGGGTTAA, with 0.049 E-score; and GCTAGTCC, with -0.106 E-score.
As to AAAACATT, the binding signal was -0.375 E-score.
The value for TCGTGGAA was 0.124 E-score; that for CGGGCTAC was -0.0855 E-score.
On to GAAAGCTC, for which the binding signal is -0.171 E-score.
For the sequence CTGTCGGC, the binding signal is -0.0713 E-score.
Then AGAGGACT, with -0.0995 E-score.
Then TCAAATCA, with -0.139 E-score; and GATGTTTA, with -0.0585 E-score; and CAATTAAG, with -0.207 E-score.
Then TAGCATGA, with -0.00967 E-score.
On to TGCCGCCA, for which the binding signal is -0.177 E-score.
Then ATAGCGCA, with -0.0371 E-score.
Then ATCTGTAA, with -0.0377 E-score; and GACAGAAA, with -0.14 E-score; and TGGTGTAA, with 0.297 E-score.
The value for CATATACA was 0.263 E-score; that for ACGTATAC was 0.285 E-score; that for AGGCGTTG was -0.166 E-score.
On to ATGGACCA, for which the binding signal is -0.0174 E-score.
ACCGGATG: the binding signal was found to be 0.121 E-score.
The value for GCGCGCAC was -0.215 E-score; that for CTGTGAGA was 0.0759 E-score; that for ACATCGGA was -0.0196 E-score.
The value for AGGTAACT was 0.0826 E-score; that for ACACAACT was -0.0839 E-score; that for ATGACTGC was -0.209 E-score.
The value for CGTCAGTA was 0.0666 E-score.
Turning to CCAAATCC, the binding signal was -0.0396 E-score.
For AGTCAGTA, the binding signal was -0.114 E-score.
GCGTACAA: the binding signal was -0.149 E-score.
Then GGCCTTAA, with -0.287 E-score; and CTCTCATC, with -0.0725 E-score.
With CCTGACAA, the binding signal is -0.202 E-score.
The value for AACACAAT was 0.0801 E-score; that for CAGTCAAG was -0.208 E-score.
The value for CGACCCCA was 0.11 E-score.
The value for CCTCCACG was -0.19 E-score; that for CACGAGCC was 0.0147 E-score.
ATGACGAC: the binding signal is -0.122 E-score.
Then CTATAGAG, with 0.0161 E-score; and CCGGACTA, with -0.171 E-score.
Then CATGTTCC, with -0.325 E-score.
For the sequence GCGACCGA, the binding signal came out at 0.151 E-score.
With GTCTAAGA, the binding signal was -0.0128 E-score.
On to ACTGGAAG, for which the binding signal was -0.0803 E-score.
Then GAACCATA, with 0.0996 E-score; and GAGTTTCC, with -0.206 E-score.
The value for AGGCCACA was -0.317 E-score; that for AACTATCC was 0.281 E-score.
Then AACGATTG, with -0.00666 E-score.
GCGGATGA: the binding signal amounted to 0.171 E-score.
Then GGACTCCC, with -0.0674 E-score; and GATCCACA, with 0.335 E-score.
Then CACACCAA, with 0.0239 E-score; and ACGGAGCT, with -0.203 E-score.
The value for CACTCTAA was -0.162 E-score.
As for CGGGTAGA, the binding signal came to 0.13 E-score.
The value for ACTCCCGC was 0.0517 E-score; that for TAAGGCAA was -0.177 E-score.
The value for CCCCTACC was 0.0656 E-score; that for CCTCTTTC was -0.159 E-score.
The value for ATAAAAAA was -0.172 E-score.
With CACAAATC, the binding signal is -0.161 E-score.
On to CTGACCCC, for which the binding signal is 0.012 E-score.
The value for GAAATCCC was -0.0215 E-score; that for AGAGAGTA was -0.102 E-score; that for AGCGTCGC was -0.24 E-score.
The value for GGGTGGAA was -0.0812 E-score; that for CGCGCGGA was -0.0434 E-score.
The value for CCCTTTAG was -0.165 E-score; that for AAATTTCT was -0.387 E-score.
As to CCACCCAA, the binding signal was -0.139 E-score.
In the case of ACGACTGG, the binding signal was -0.146 E-score.
The value for AACAGTCT was -0.202 E-score; that for CATAATGG was -0.0983 E-score; that for AGCCGTTC was -0.0457 E-score.
Then AAGCCACA, with -0.242 E-score; and GCCTATTA, with 0.0662 E-score.
Then ATACATAT, with 0.354 E-score; and CGAACTCG, with -0.205 E-score; and ATAATCAG, with 0.179 E-score.
Turning to ACTTAGTC, the binding signal was -0.301 E-score.
Then ACAGAAGG, with -0.0876 E-score; and CAGATTAA, with 0.217 E-score; and GTGGCCAA, with -0.194 E-score.
The value for AGGTGGTG was -0.102 E-score; that for AACTATAG was -0.0606 E-score; that for AGTGGCGC was -0.19 E-score.
Then ACGGCACG, with -0.081 E-score; and ATACCCAG, with 0.382 E-score.
Consider CATAATCC, for which the binding signal is 0.3 E-score.
Then AGGTACGA, with 0.0442 E-score; and AAAGGAAA, with -0.208 E-score; and CCTTCGAC, with -0.126 E-score.
The value for ATCCCCAA was 0.294 E-score; that for ACGGCAAC was -0.0767 E-score.
As for ACATGCAT, the binding signal is -0.0641 E-score.
GTGGGAAA: the binding signal was -0.102 E-score.
Then ATATGGAG, with 0.253 E-score; and GACATTTA, with -0.264 E-score; and ACATTTAT, with -0.224 E-score.
Then CCCGAGTC, with 0.189 E-score.
Then CAGTAAGA, with 0.0974 E-score; and GGTGTTGA, with 0.258 E-score.
For GCGTCAAC, the binding signal was -0.231 E-score.
The value for CTCCTCAC was -0.167 E-score.
Then AGTTGTCC, with -0.194 E-score; and ACTATTAT, with 0.0434 E-score; and ACGCATCG, with 0.141 E-score.
Then ATGGTAGA, with -0.0112 E-score; and CGCCAGCG, with 0.0107 E-score.
GTGCGCGA: the binding signal is -0.182 E-score.
Then CAGCATAG, with -0.0445 E-score; and GAAGCACA, with -0.247 E-score.
Then CAGTGGAA, with -0.183 E-score; and GACTGCTA, with -0.317 E-score; and ATGCTGAA, with -0.215 E-score.
As to CGTACGTC, the binding signal was -0.171 E-score.
Then AGTGCGCA, with -0.212 E-score.
The value for ATGTTTGG was -0.107 E-score; that for TGCGAACA was -0.12 E-score.
